# In all, about 16,000 sequences were measured (“Z-score”: median about -0.37, highest 2% from about 3.2 on). This is one part of the list.
# Tested on: RBM10 RRM1-ZnF (GST-tagged construct)
# Assay: RNAcompete 7-mer binding Z-score; higher = stronger binding preference
# Summary of the method: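 GST-tagged RBM10 constructs (20 pmol) were mixed with a designed pool of 241 399 RNAs up to 41 nt (1.5 nmol), transcribed from microarray-derived DNA templates. Mixing was in 1 ml Hepes pH 7.8 buffer with KCl, NaCl, glycerol, DTT, BSA and glutathione Sepharose beads. Binding ran 30 min at 4°C, followed by four 2-min washes at 4°C, and bound RNA was identified by microarray hybridisation. Each heptamer motif received a one-sided Z-score for enrichment across probes containing it.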
row,Sequence,RNAcompete 7-mer binding Z-score
1,UGAAUGU,0.134
2,GUGAUCA,0.215
3,UCUCUAC,-0.808
4,GCCUGAU,-0.704
5,UAUGUCU,-0.688
6,UACGCAG,-0.259
7,CAAGGAA,1.48
8,UUCAGUG,-0.0317
9,CCCAGUU,-0.61
10,CUACAGC,-0.889
11,CUGUGAU,-0.698
12,GUGCUCU,-0.552
13,CACUUAU,-0.727
14,UUUAAUG,-0.526
15,AUGAUCU,-0.665
16,GAUCGCU,-0.552
17,GGACCAA,0.0723
18,UAUGGCG,0.537
19,AGGAAAC,0.995
20,AUCGACG,-0.311
21,UAUAUUC,-0.591
22,AUUAUCU,-0.769
23,CACCUAC,-0.584
24,CGGACCA,0.0365

row,Sequence,RNAcompete 7-mer binding Z-score
1,GGGGUGC,2.92
2,AAAGGGC,2.62
3,AAACCGG,0.183
4,GGGAGUA,2.53
5,UUCUCGC,-0.769
6,CGUAUGA,-0.24
7,AAGGCCA,-0.00896
8,GAGGUUG,2.4
9,CGUAAUG,-0.327
10,AGUUAGA,0.306
11,CAAUGGG,2.34
12,AGCGCAA,-0.295
13,AGACGCC,-0.977
14,AUCAUGC,-0.626
15,UCAGCUC,-0.756
16,UAUGACU,-0.604
17,CACCUAU,-0.902
18,GUACCGC,-0.256
19,UCAUCAU,-0.6
20,UAGACCC,-0.454
21,AUUAUGG,0.901
22,GAUGAGA,1.02
23,ACGAUGA,0.121
24,AACUCCC,-0.759

row,Sequence,RNAcompete 7-mer binding Z-score
1,UGUAGAA,0.501
2,AAGUGGA,3.31
3,UCUGCGA,-0.707
4,CCCAACG,-0.285
5,GAAUCUU,-0.733
6,ACCGGGG,1.81
7,GAAUCAA,0.0333
8,UUAAGGU,1.37
9,UAGCGCG,-0.0902
10,UCAGAGU,-0.11
11,UGUUUUA,-0.461
12,UCGUCCG,-0.701
13,UACGCCG,-0.707
14,GGCAAGC,0.436
15,UCUGCUU,-0.828
16,GGCAGUG,1.03
17,ACCGAGA,-0.392
18,CAGAGCA,0.0495
19,GUUCCAA,-0.72
20,CAAAGAA,-0.298
21,CUCUUUG,-0.912
22,CGAAUAC,-0.363
23,UUUUUUC,-0.795
24,GGAUUCU,-0.152

row,Sequence,RNAcompete 7-mer binding Z-score
1,GACAGGG,2.98
2,CAACCUC,-0.717
3,UCAUUAC,-0.766
4,CAGGGUG,3.21
5,UUCCGUU,-0.626
6,CGCCAAA,-0.746
7,CCUGUGU,-0.607
8,AUGGACU,0.829
9,GUCAACA,-0.022
10,GCCCGCG,-0.165
11,AGUUAAC,-0.175
12,UUUGGAU,0.082
13,AGGCCAG,-0.171
14,AACUCGA,-0.613
15,UCUAACA,-0.565
16,CUUACGC,-0.86
17,GAUUUAU,-0.402
18,CAUAAGA,-0.513
19,GUUCCGU,-0.386
20,UUGUUGA,-0.0512
21,CAAUGCC,-0.802
22,CGCCCUA,-0.662
23,GAUGGUC,0.563
24,UGGGUAG,3.5

row,Sequence,RNAcompete 7-mer binding Z-score
1,GGAAUGA,2.05
2,UGCAUUA,-0.366
3,ACAUCGC,-0.649
4,UCGCGGA,0.248
5,UGCGAAU,-0.165
6,GGGCUCU,0.157
7,GGCAUAG,1.16
8,CUCGGCG,-0.0999
9,GAGUUUC,-0.435
10,UCUCAUG,-0.607
11,AUAUAUA,-0.428
12,ACAUGGU,0.982
13,GACCAAG,-0.269
14,UCUAGGC,-0.415
15,AUCCUAU,-0.834
16,ACUUAUG,-0.655
17,CUCAGUG,-0.353
18,UCCGUGA,-0.756
19,AAGUUUA,-0.516
20,UCGAUCC,-0.649
21,CGCAAGG,0.566
22,UAUAUAG,-0.207
23,UUAAAGC,-0.366
24,AUACAUG,0.231

row,Sequence,RNAcompete 7-mer binding Z-score
1,GUCCCAC,-0.558
2,AUUAGAA,0.115
3,UAUAUUA,-0.454
4,UUCCUAG,-0.714
5,GGACGCG,0.836
6,CGCCGGU,-0.35
7,UGUUGGA,1.14
8,UAUCCAA,-0.779
9,GCGGUCA,0.166
10,UAGGAAG,1.72
11,UACCCGC,-0.539
12,GGCCAUU,-0.584
13,GUCCGCA,-0.62
14,CCGCUAA,-0.798
15,UGACUAG,0.244
16,UAUACGG,0.326
17,GUUUGGA,1.36
18,AGGAAUU,0.465
19,CCUCUAA,-0.795
20,AGUGGAC,1.34
21,CGAGAAC,-0.376
22,UUCGAGA,-0.36
23,GCGAAGU,0.391
24,GAAUAGG,3.04

row,Sequence,RNAcompete 7-mer binding Z-score
1,CGUAUUC,-0.672
2,CUAACAA,-0.672
3,AAUGGCA,1.14
4,UUGCUCU,-0.886
5,UCGUAUU,-0.636
6,CUCGCCU,-0.717
7,CAUCGAG,-0.165
8,UGACGGG,2.25
9,ACUUUGU,-0.954
10,UUACAAC,-0.402
11,CCAUCAG,-0.769
12,UUUCCUU,-0.948
13,CAGGGAA,2.96
14,GACUCAC,-0.672
15,AAAUAUU,-0.646
16,UAACCGU,-0.763
17,CGCAACC,-0.594
18,CCACUCU,-0.711
19,UUCCACC,-0.701
20,ACAUCCG,-0.704
21,GCUAGAU,-0.295
22,AUCUCAC,-0.74
23,GAGCUAA,-0.00896
24,ACCCAAA,-0.811

row,Sequence,RNAcompete 7-mer binding Z-score
1,UACCUUA,-0.87
2,AAUUAUU,-0.617
3,UCUAUAU,-0.733
4,GAGGGAC,2.06
5,UGGUUUG,1.9
6,UACCAGA,-0.584
7,UCGUUAG,-0.269
8,AAUACGA,-0.282
9,CUUGAAC,-0.805
10,UCGACAU,-0.428
11,CCCACCC,-0.295
12,GGAAGAG,3.13
13,UGUGACA,-0.145
14,CGCUUAC,-0.623
15,AAUAAUC,-0.548
16,ACGGUGG,2.76
17,GUAGGAC,1.4
18,GACAUAA,-0.259
19,UUGUGUA,-0.305
20,ACUACGA,-0.396
21,AUAGCAA,-0.0999
22,UGUUGAU,-0.233
23,UACCCUA,-0.62
24,AUUUAUA,-0.617

row,Sequence,RNAcompete 7-mer binding Z-score
1,UCCACAU,-0.681
2,UUCAUCU,-0.717
3,UUGGCCA,-0.366
4,CAUAAAU,-0.681
5,CUGGCGA,-0.0707
6,GCAUUAG,-0.171
7,CUUGUGG,0.000789
8,CAAAUAU,-0.727
9,ACCAACG,-0.483
10,GACAAGC,-0.256
11,UAUGGGA,2.85
12,UUGGGGG,3.56
13,GGGGGUA,3.99
14,UGUUCGG,0.0853
15,GAGCAAU,-0.126
16,AGCAUUA,-0.555
17,ACCUUUU,-1.03
18,UCUACGC,-0.763
19,CAUCAUU,-0.701
20,GGGACCA,1.25
21,CUAGUAA,-0.487
22,CAUGGUA,0.55
23,CGCUCUG,-0.694
24,AACGUCG,-0.236

row,Sequence,RNAcompete 7-mer binding Z-score
1,UGGACAG,1.61
2,AGAAACC,-0.74
3,CGCCAGG,0.384
4,CAACCCA,-0.542
5,UGCCGCG,-0.574
6,GAAAAAG,1.49
7,CAACUGC,-0.753
8,UGCUUCU,-0.665
9,UGUACGG,0.943
10,CGAUUAG,-0.149
11,UAAAUCG,-0.435
12,AUUCGCA,-0.545
13,UCCAAGA,-0.548
14,AGUUACG,-0.0577
15,GCCGAGC,-0.113
16,CCCACUG,-0.483
17,GGUAUAU,0.956
18,GUUCUUC,-0.698

# — the supplement of paper PMC5499739
